Test results reported in the supplement of paper PMC4967469.
By IC50 is meant the dose at which the fit gives 50% viability; a fit beyond the top or the lowest dose is shown as a bound at that dose. AUC is the area under the same curve over the 256-fold range up to the top dose, as a fraction; it is 1 without any effect and falls as sensitivity rises. For some assays here: Any top dose called inferred comes from the curve model; the source does not state it. For some assays here: Where an entry number is given, a second screen of the drug exists; the two often differ.

Experiments:
Assay in all cases: Viability of human cancer cell lines after 72 h of drug (GDSC screen)
CP466722 = compound: COc1cc2ncnc(-n3nc(-c4ccccn4)nc3N)c2cc1OC [CP466722]; settings: top dose 16 µM; top dose inferred
Experimental: (§1)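 Human cancer cell lines in 384-well plates, medium with 10% serum, drug for 72 h over a 256-fold dose range (nine 2-fold or five 4-fold steps up to the top dose). Adherent lines were fixed and stained with the nucleic acid dye Syto60, suspension lines read with resazurin; signal relative to control wells, capped at 0 and 100%. One two-parameter sigmoid per drug and line, fitted in a mixed model over all curves with the slope shared within a line.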

(5Z)-7-Oxozeaenol = compound: COc1cc(O)c2c(c1)/C=C/C[C@H](O)[C@H](O)C(=O)/C=C\C[C@H](C)OC2=O [(5Z)-7-Oxozeaenol]; settings: top dose 10 µM; top dose inferred
Experimental: as §1

Cytarabine = compound: Nc1ccn([C@@H]2O[C@H](CO)[C@@H](O)[C@@H]2O)c(=O)n1 [Cytarabine]; settings: top dose 2 µM
Experimental: as §1

QL-X-138 = compound: C=CC(=O)Nc1cc(-n2c(=O)ccc3cnc4ccc(-c5cn[nH]c5)cc4c32)ccc1C [QL-X-138]; settings: top dose 10.24 µM; top dose inferred
Experimental: as §1

KU-55933 = compound: O=c1cc(-c2cccc3c2Sc2ccccc2S3)oc(N2CCOCC2)c1 [KU-55933]; settings: top dose 10 µM
Experimental: as §1

MPS-1-IN-1 = compound: COc1cc(N2CCC(O)CC2)ccc1Nc1cc(Nc2ccccc2S(=O)(=O)C(C)C)c2cc[nH]c2n1 [MPS-1-IN-1]; settings: top dose 20 µM; top dose inferred
Experimental: as §1

Zibotentan = compound: COc1nc(C)cnc1NS(=O)(=O)c1cccnc1-c1ccc(-c2nnco2)cc1 [Zibotentan]; settings: top dose 20 µM; top dose inferred
Experimental: as §1

CHIR-99021 = compound: Cc1cnc(-c2cnc(NCCNc3ccc(C#N)cn3)nc2-c2ccc(Cl)cc2Cl)[nH]1 [CHIR-99021]
Experimental: as §1

Thapsigargin = compound: C/C=C(/C)C(=O)O[C@H]1C(C)=C2[C@H]([C@@H]1OC(=O)CCCCCCC)[C@@](C)(OC(C)=O)C[C@H](OC(=O)CCC)[C@@]1(O)[C@H]2OC(=O)[C@@]1(C)O [Thapsigargin]; settings: top dose 0.512 µM; top dose inferred
Experimental: as §1

ABT-869 = compound: Cc1ccc(F)c(NC(=O)Nc2ccc(-c3cccc4[nH]nc(N)c34)cc2)c1 [ABT-869]; settings: top dose 1.024 µM; top dose inferred
Experimental: as §1

GSK269962A = compound: CCn1c(-c2nonc2N)nc2cnc(Oc3cccc(NC(=O)c4ccc(OCCN5CCOCC5)cc4)c3)cc21 [GSK269962A]; settings: top dose inferred
Experimental: as §1

ABT-888 = compound: C[C@]1(c2nc3c(C(N)=O)cccc3[nH]2)CCCN1 [ABT-888]; settings: top dose 5 µM; top dose inferred
Experimental: as §1

[1] = top dose 2.56 µM, screen: GDSC drug entry 154
[2] = top dose 10 µM, screen: GDSC drug entry 1241, top dose inferred
[3] = top dose 5 µM, screen: GDSC drug entry 1192
[4] = top dose 2.5 µM, screen: GDSC drug entry 127

Cell Line	AUC (CP466722)	IC50 (CP466722) [µM]	AUC ((5Z)-7-Oxozeaenol)	IC50 ((5Z)-7-Oxozeaenol) [µM]	AUC (Cytarabine)	IC50 (Cytarabine) [µM]	AUC (QL-X-138)	IC50 (QL-X-138) [µM]	AUC (KU-55933)	IC50 (KU-55933) [µM]	AUC (MPS-1-IN-1)	IC50 (MPS-1-IN-1) [µM]	AUC (Zibotentan)	IC50 (Zibotentan) [µM]	AUC (CHIR-99021; [1])	IC50 (CHIR-99021; [1]) [µM]	AUC (CHIR-99021; [2])	IC50 (CHIR-99021; [2]) [µM]	AUC (Thapsigargin)	IC50 (Thapsigargin) [µM]	AUC (ABT-869)	IC50 (ABT-869) [µM]	AUC (GSK269962A; [3])	IC50 (GSK269962A; [3]) [µM]	AUC (ABT-888)	IC50 (ABT-888) [µM]	AUC (GSK269962A; [4])	IC50 (GSK269962A; [4]) [µM]
MFE-296 (endometrium, adherent)	0.863	15.6	0.71	2.57	0.771	0.823	0.674	2.04	0.958	> 10	0.979	> 20	0.983	> 20	0.968	> 2.56	0.983	> 10	0.249	0.00571	0.985	> 1.02	0.847	4.1	0.965	> 5	–	–
MS751 (cervix, adherent)	0.953	> 16	0.714	2.37	0.944	> 2	0.901	> 10.2	0.99	> 10	0.957	> 20	0.99	> 20	0.972	> 2.56	0.961	> 10	0.401	0.0175	0.987	> 1.02	0.878	4.38	0.99	> 5	–	–
NB12 (neuroblastoma, adherent)	0.736	6.09	0.408	0.321	0.892	> 2	0.814	8.2	0.972	> 10	0.834	19.8	0.978	> 20	0.956	> 2.56	0.975	> 10	0.386	0.014	0.972	> 1.02	0.791	3.15	0.976	> 5	0.875	> 2.5
NCI-H28 (mesothelioma, adherent)	0.933	> 16	0.697	2.69	0.833	1.91	0.931	> 10.2	0.938	> 10	0.917	> 20	0.979	> 20	0.878	> 2.56	0.844	> 10	0.776	0.273	0.975	> 1.02	0.9	> 5	0.962	> 5	–	–
NCI-H520 (lung squamous cell carcinoma, adherent)	0.784	7.06	0.836	6.91	0.959	> 2	0.684	2.14	0.965	> 10	0.899	> 20	0.985	> 20	0.987	> 2.56	0.983	> 10	0.145	0.00237	0.987	> 1.02	0.974	> 5	0.987	> 5	–	–
NCI-H596 (lung adenocarcinoma, adherent)	0.828	14	0.598	1.26	0.966	> 2	0.652	1.92	0.974	> 10	0.972	> 20	0.976	> 20	0.982	> 2.56	0.972	> 10	0.496	0.031	0.953	> 1.02	0.917	> 5	0.982	> 5	–	–
NCI-H650 (lung adenocarcinoma, adherent)	0.807	9.22	0.68	2.1	0.896	> 2	0.618	1.4	0.964	> 10	0.844	16.5	0.984	> 20	0.986	> 2.56	0.919	> 10	0.355	0.0122	0.986	> 1.02	0.92	> 5	0.984	> 5	–	–
NCI-H661 (large cell lung carcinoma, adherent)	0.975	> 16	0.726	3.19	0.739	0.71	0.718	3.06	0.895	> 10	0.872	> 20	0.972	> 20	0.957	> 2.56	0.969	> 10	0.442	0.0215	0.978	> 1.02	0.744	1.84	0.98	> 5	–	–
NCI-H810 (large cell lung carcinoma, adherent)	0.775	6.03	0.751	3.16	0.917	> 2	0.46	0.501	0.984	> 10	0.77	7.3	0.988	> 20	0.986	> 2.56	0.968	> 10	0.21	0.0047	0.988	> 1.02	0.496	0.305	0.987	> 5	–	–
NCI-H841 (small cell lung carcinoma, adherent)	0.852	12.4	0.792	4.54	0.737	0.594	0.576	1.04	0.984	> 10	0.92	> 20	0.988	> 20	0.961	> 2.56	0.971	> 10	0.874	0.502	0.988	> 1.02	0.928	> 5	0.985	> 5	–	–
NCI-H1048 (small cell lung carcinoma, adherent)	0.702	3.46	0.803	4.38	0.698	0.42	0.656	1.65	0.966	> 10	0.859	14	0.989	> 20	0.99	> 2.56	0.979	> 10	0.464	0.0258	0.975	> 1.02	0.973	> 5	0.989	> 5	–	–
NCI-H1435 (lung adenocarcinoma, semi-adherent)	0.894	15.6	0.963	> 10	0.992	> 2	0.991	> 10.2	0.916	> 10	0.989	> 20	0.992	> 20	0.979	> 2.56	0.991	> 10	0.294	0.00909	0.993	> 1.02	0.992	> 5	0.981	> 5	–	–
NCI-H1568 (lung adenocarcinoma, adherent)	0.982	> 16	0.797	6.14	0.838	1.86	0.979	> 10.2	0.965	> 10	0.944	> 20	0.982	> 20	0.981	> 2.56	0.925	> 10	0.251	0.00506	0.967	> 1.02	0.962	> 5	0.959	> 5	–	–
NCI-H1623 (lung adenocarcinoma, adherent)	0.973	> 16	0.941	> 10	0.665	0.401	0.933	> 10.2	0.961	> 10	0.917	> 20	0.984	> 20	0.985	> 2.56	0.971	> 10	0.777	0.255	0.981	> 1.02	0.983	> 5	0.981	> 5	–	–
NCI-H1651 (lung adenocarcinoma, adherent)	0.987	> 16	0.803	5.41	0.906	> 2	0.986	> 10.2	0.978	> 10	0.987	> 20	0.987	> 20	0.983	> 2.56	0.986	> 10	0.485	0.0291	0.984	> 1.02	0.967	> 5	0.98	> 5	–	–
NCI-H1688 (small cell lung carcinoma, adherent)	0.918	> 16	0.961	> 10	0.977	> 2	0.833	7.55	0.985	> 10	0.937	> 20	0.985	> 20	0.987	> 2.56	0.982	> 10	0.511	0.0344	0.974	> 1.02	0.934	> 5	0.987	> 5	–	–
NCI-H1693 (lung adenocarcinoma, adherent)	0.875	> 16	0.707	3.46	0.872	> 2	0.804	9.45	0.947	> 10	0.97	> 20	0.966	> 20	0.969	> 2.56	0.929	> 10	0.824	> 0.512	0.973	> 1.02	0.908	> 5	0.899	> 5	–	–
NCI-H1755 (lung adenocarcinoma, adherent)	0.577	1.68	0.826	7.38	0.771	0.89	0.95	> 10.2	0.951	> 10	0.899	> 20	0.972	> 20	0.888	> 2.56	0.798	5.64	0.757	0.202	0.928	> 1.02	0.733	1.63	0.966	> 5	–	–
